According to PubChem BioAssay AID485294 (National Center for Advancing Translational Sciences (NCATS), 2010):
Among all 370,000 compounds or so, about 150 (0.041%) were called active. Inconclusive results, whose numbers are uncertain, are shown with a selection of clear calls. Calls come from the whole dose curve; as a rule, active = well fitted inhibition curve with a large enough effect; inconclusive = small, poorly fitted or top-dose-only effect; inactive = flat fitted curve, though single readings scatter. Potencies of inconclusive entries are left out as doubtful fits.

Target: Beta-lactamase (Escherichia coli (strain K12)) (UniProt P00811)
UniProt P00811, sequence (P00811 whole entry, looked up): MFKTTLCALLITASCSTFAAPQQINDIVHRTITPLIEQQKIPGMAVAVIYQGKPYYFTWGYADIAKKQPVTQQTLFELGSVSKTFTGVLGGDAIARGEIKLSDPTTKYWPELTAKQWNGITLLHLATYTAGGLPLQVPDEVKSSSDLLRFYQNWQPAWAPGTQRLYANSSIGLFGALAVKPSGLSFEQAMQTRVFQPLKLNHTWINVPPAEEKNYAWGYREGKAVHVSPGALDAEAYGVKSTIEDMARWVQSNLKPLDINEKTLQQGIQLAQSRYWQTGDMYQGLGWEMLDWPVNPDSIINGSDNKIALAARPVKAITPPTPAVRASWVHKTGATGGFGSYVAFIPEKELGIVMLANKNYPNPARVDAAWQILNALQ
Experiment: qHTS Inhibitors of AmpC Beta-Lactamase (assay with detergent); note: nearly all actives have a fitted effect of over 25% in size;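 for activity change, negative = inhibition: 0% = no-compound wells and -100% = no-enzyme wells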
Details: AmpC hydrolysis of nitrocefin, absorbance 480 nm, 0.01% Triton; activity change, negative = inhibition: at 114 µM (top of the series)
In short: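 AmpC (5.3 nM in the dispensed reagent) in 20 mM phosphate pH 7.0 with 0.01% (detergent screen) or 0.0001% Triton X-100 was preincubated with compounds for 15 min at room temperature. Nitrocefin was then added from an 800 uM solution, and hydrolysis was followed at 480 nm.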
Potency is the fitted concentration of half-maximal effect; tags give direction and shape of the fitted curve.

SMILES | Potency | activity change, negative = inhibition
NC(=O)COC(=O)c1cc(Cl)cc(Cl)c1N | inconclusive [inhibitor, full curve, poor fit] | 
COC(=O)c1cn(NC(=O)Cc2cccc(OC)c2)c(=O)c2ccccc12 | inconclusive [inhibitor, full curve, poor fit] | 
OCCNc1nc2ccccc2n1-c1ccccc1 | inconclusive [inhibitor, full curve, poor fit] | 
COc1nc(N)nc(NC23CC4CC(CC(C4)C2)C3)n1 | inconclusive [inhibitor, partial curve, poor fit] | 
CC(=O)Nc1ccc(N/C=C/C(=O)c2ccc(Br)cc2)cc1 | inconclusive [inhibitor, full curve, poor fit] | 
CC(C)COC(=O)/C(C#N)=C/c1c[nH]c2ccccc12 |  | inactive: 0.023%
CN(C)C(/C=C/Nc1ccc(C#N)cc1)=C(C#N)C#N | inconclusive [inhibitor, single point] | 
CC(C)NS(=O)(=O)c1ccc(OCC(=O)NCc2ccc3c(c2)OCO3)c(Cl)c1 | inconclusive [inhibitor, full curve, poor fit] | 
CS(=O)(=O)N1CCC(C(=O)Nc2cccc(C(F)(F)F)c2)CC1 | inconclusive [inhibitor, partial curve] | 
CC(C)C(NC(=O)C1CCCCC1)C(=O)Nc1ccccn1 (stereo not drawn) | inconclusive [inhibitor, partial curve] | 
N#C/C(=C(/O)c1ccc(Cl)c([N+](=O)[O-])c1)c1nc2ccccc2[nH]1 |  | inactive: -8.53%
O=C(Nc1nnc(-c2ccncc2)s1)C1CCCO1 (stereo not drawn) | inconclusive [inhibitor, full curve, poor fit] | 
Oc1ccccc1NCC(O)Cn1ccc2ccccc21 (stereo not drawn) | inconclusive [inhibitor, full curve, poor fit] | 
Cn1c(=O)n(C)c2cc(/C=C3/SC(=O)N(CC(=O)N4CCOCC4)C3=O)ccc21 | inconclusive [inhibitor, full curve, poor fit] | 
Cc1nn(C(C)(C)C)c(OC(=O)c2cccs2)c1S(=O)(=O)c1ccccc1 |  | inactive: -8.15%
CN(C)c1ccc(NC(=O)Cn2cc3c(n2)CCCC3)cc1 | inconclusive [inhibitor, full curve, poor fit] | 
COc1ccc(NC(=O)c2ccc(Oc3ncccn3)cc2)cc1 | inconclusive [inhibitor, single point] | 
CCOC(=O)CSc1nnc(Cn2c(=O)sc3ccccc32)n1-c1ccccc1C | inconclusive [inhibitor, full curve, poor fit] | 
COc1ccc(-c2nc3cc(NC(=O)Cc4ccc(OC)c(OC)c4)ccc3o2)cc1 | inconclusive [inhibitor, partial curve] | 
C=CCn1c(SCC(=O)Nc2ccc(S(N)(=O)=O)cc2)nnc1-c1cnccn1 |  | inactive: 0.672%
O=C(COC(=O)/C=C/c1ccc2c(c1)OCO2)NC1CCS(=O)(=O)C1 (stereo not drawn) | inconclusive [inhibitor, single point] | 
Cc1ccc(C)c(C(=O)Nc2ccncc2)c1 | inconclusive [inhibitor, full curve, poor fit] | 

SMILES | Potency | activity change, negative = inhibition
CS(=O)(=O)CCC(C(=O)Nc1ccc2c(c1)OCO2)N1Cc2ccccc2C1=O (stereo not drawn) |  | inactive: -4.89%
CC(=O)Nc1ccc(NC(=O)C(C)OC(=O)/C=C/c2cccs2)cc1 (stereo not drawn) |  | inactive: -8.81%
O=C(c1ccc2c(c1)OCCO2)N(Cc1cccnc1)c1nc2c(F)cccc2s1 |  | inactive: 14.1%
COc1ccc(CNC(=O)c2c(C)oc3c2C(=O)c2ccccc2C3=O)cc1 | inconclusive [inhibitor, full curve, poor fit] | 
CCN(c1ccc(C)cc1)S(=O)(=O)c1nnc(NC(=O)c2ccco2)s1 | inconclusive [inhibitor, single point] | 
COc1cccc(N2CC(C(=O)Nc3c(C)cccc3C)CC2=O)c1 (stereo not drawn) | inconclusive [inhibitor, full curve, poor fit] | 
O=S(=O)(c1ccccc1)c1cc(O)ccc1O |  | inactive: 5.59%
COc1ccc(-c2csc3nc(C)n(-n4cccc4)c(=O)c23)cc1OC | inconclusive [inhibitor, full curve, poor fit] | 
COC(=O)c1ccc(C2C(C(=O)c3cc4ccccc4o3)=C(O)C(=O)N2CCCN(C)C)cc1 (stereo not drawn) |  | inactive: -14.6%
O=S(=O)(c1ccc2c(c1)CCCC2)N1CCNCC1 | inconclusive [inhibitor, single point] | 
Cc1cccc(CNC(=O)C2CCN(c3nnc(-n4c(C)ccc4C)s3)CC2)c1 |  | inactive: 4.23%
Cc1cccc(NC(=S)N(CCN2CCOCC2)Cc2ccccc2F)c1 | inconclusive [inhibitor, single point] | 
Cc1ccc(N2CC(NC(=O)c3ccc(S(=O)(=O)N4CCOCC4)cc3)CC2=O)cc1C (stereo not drawn) |  | inactive: -1.75%
O=C(Oc1ccccc1/C=C\C(=O)c1cc2ccccc2o1)c1cccc(F)c1 | inconclusive [inhibitor, full curve, poor fit] | 
N#Cc1c(N2CCOCC2)nc(N2CCCCC2)c2c1CCN(C1CCCCC1)C2 |  | inactive: -9.82%
Cc1ccc(NS(=O)(=O)c2cccc([N+](=O)[O-])c2)nc1 | inconclusive [inhibitor, full curve] | 
Cc1cccc(NS(=O)(=O)c2cccc3cccnc23)n1 | inconclusive [inhibitor, full curve] | 
CC(C)(C)c1ccccc1OCC(O)CN1CCN(c2ccccn2)CC1 (stereo not drawn) | inconclusive [inhibitor, partial curve, poor fit] | 
COc1ccccc1CC(=O)N1CCOCC1 | inconclusive [inhibitor, full curve, poor fit] | 
CC(C)C[C@H]1CN=C(Nc2ccccc2)N1CCCC1CCCCC1 |  | inactive: -16.6%
CCCCCNC(=O)c1ccc2c(=O)n(CCOC)c(=O)[nH]c2c1 | inconclusive [inhibitor, full curve, poor fit] | 
